From the supplement of paper PMC10126150
Sequences with one replicate were seen in a single cluster, so their values are uncertain.
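Note: ATP exposure 15 min at 22 °C before imaging.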

Each sequence was assayed on ATP (assay: switch fluorescence ratio, 500 uM ATP over buffer (Cy3 cluster intensity, sum of 5 cycles each) (fold (ratio)); higher = stronger signal-on switching upon ATP binding; sequences stand for … in TCGTCGGCAGCGTCAGATGTGTATAAGAGACAGTTTTTTTTTTTTTTTTTTTTTTTTT…TC). Details: aptamer strand: ATP DNA aptamer (quencher-CACCTGGGGGAGTATTGCGGAGGAAGG + anchor), 100 nM annealed; ATP concentration: 500 uM; one replicate.
Outline: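 For every switch-domain sequence, the fluorescence ratio is the mean of per-cluster values, each being summed target-cycle Cy3 intensity over summed buffer-cycle Cy3 intensity. Clusters outside 100-1000 RFU were excluded. On a modified Illumina MiSeq flow-cell, the Cy3-labelled switching-strand clusters were annealed to 100 nM quencher-labelled ATP aptamer, imaged in selection buffer and then after 15 min with 500 uM ATP at 22 °C. Five such cycles were run, with NaOH stripping and re-annealing between them.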
TGTATTCGGC was tested, and the switch fluorescence ratio was 1.01. TGTATTTCCG was tested, and the switch fluorescence ratio was 1.01. Sequence TGTCAAAATC has a switch fluorescence ratio of 0.945. Work on TGTCAAAGGC yielded a switch fluorescence ratio of 1.03. For TGTCAAGAGT, the switch fluorescence ratio was 1.03. In the case of TGTCAATCG, the switch fluorescence ratio was 0.99. TGTCAATTAA showed a switch fluorescence ratio of 1.05. For TGTCACAAGT, the switch fluorescence ratio was 0.984. Work on TGTCATGCTA yielded a switch fluorescence ratio of 1. TGTCCAACTC gave a switch fluorescence ratio of 1.27. In the case of TGTCCACCTC, the switch fluorescence ratio was 0.997. TGTCCCAAAT showed a switch fluorescence ratio of 0.994. TGTCCGACCA gave a switch fluorescence ratio of 1.18. TGTCCGGCCT gave a switch fluorescence ratio of 0.962. With TGTCCGGGTA the switch fluorescence ratio was 1.61. Work on TGTCCTAGTA yielded a switch fluorescence ratio of 0.988. Sequence TGTCGAATTA has a switch fluorescence ratio of 0.956. With TGTCGACGTT the switch fluorescence ratio was 0.998. With TGTCGATGGG the switch fluorescence ratio was 0.959. TGTCGCCTAG was tested, and the switch fluorescence ratio was 1.02. With TGTCGGAACA the switch fluorescence ratio was 0.943. In the case of TGTCGGGTTG, the switch fluorescence ratio was 0.942. TGTCTCCGGA gave a switch fluorescence ratio of 1.05. For TGTCTCGCCG, the switch fluorescence ratio was 1.02. In the case of TGTCTGGGTG, the switch fluorescence ratio was 1.16. TGTCTTCGAA gave a switch fluorescence ratio of 0.987. Work on TGTCTTTATG yielded a switch fluorescence ratio of 0.995. For TGTGAATTAG, the switch fluorescence ratio was 0.992. With TGTGAGGCG the switch fluorescence ratio was 0.878. TGTGAGTGAA showed a switch fluorescence ratio of 1.02. With TGTGATTACG the switch fluorescence ratio was 0.977. With TGTGATTGTC the switch fluorescence ratio was 1.04. TGTGATTTG gave a switch fluorescence ratio of 0.99. TGTGCAAAAC was tested, and the switch fluorescence ratio was 1.7. With TGTGCATAGG the switch fluorescence ratio was 1.02. TGTGCCTGAA showed a switch fluorescence ratio of 1.02. With TGTGCTAACA the switch fluorescence ratio was 0.964. In the case of TGTGGAACAG, the switch fluorescence ratio was 1. For TGTGGACCCT, the switch fluorescence ratio was 1. For TGTGGAGGAT, the switch fluorescence ratio was 0.967. Sequence TGTGGAGTA has a switch fluorescence ratio of 1.04. TGTGGCTGG was tested, and the switch fluorescence ratio was 0.989. For TGTGGGACTG, the switch fluorescence ratio was 1.01. Work on TGTGGGCAGG yielded a switch fluorescence ratio of 0.942. Work on TGTGGGGCCG yielded a switch fluorescence ratio of 1.03. With TGTGGGGTTA the switch fluorescence ratio was 1.01. For TGTGGTAGCT, the switch fluorescence ratio was 0.993. Sequence TGTGGTCGGA has a switch fluorescence ratio of 0.983. Sequence TGTGGTGGAA has a switch fluorescence ratio of 1.02. TGTGGTGTTG gave a switch fluorescence ratio of 1.02. TGTGGTTAG showed a switch fluorescence ratio of 1.02. TGTGTAAAAG gave a switch fluorescence ratio of 0.999. TGTGTAGCGT was tested, and the switch fluorescence ratio was 1.01. In the case of TGTGTAGTGG, the switch fluorescence ratio was 0.983. In the case of TGTGTATACG, the switch fluorescence ratio was 0.962. TGTGTCCTGT was tested, and the switch fluorescence ratio was 0.984. TGTGTCTCAA showed a switch fluorescence ratio of 1.01. With TGTGTGAAA the switch fluorescence ratio was 1.01. For TGTGTGACTC, the switch fluorescence ratio was 1.02. With TGTGTGCTCG the switch fluorescence ratio was 0.995. In the case of TGTGTTCACG, the switch fluorescence ratio was 1.01. TGTGTTTAGC showed a switch fluorescence ratio of 0.99. With TGTGTTTGCT the switch fluorescence ratio was 0.973. Sequence TGTTAACCCG has a switch fluorescence ratio of 1.01. TGTTAAGCGG showed a switch fluorescence ratio of 0.936. With TGTTACTTCG the switch fluorescence ratio was 1.57. Work on TGTTAGGACG yielded a switch fluorescence ratio of 1.08. For TGTTAGGGC, the switch fluorescence ratio was 1.01. TGTTATCGAG was tested, and the switch fluorescence ratio was 0.983. TGTTCAAGTG was tested, and the switch fluorescence ratio was 0.969. With TGTTCAGGG the switch fluorescence ratio was 0.972. Work on TGTTCCGCAT yielded a switch fluorescence ratio of 4.86. In the case of TGTTCCTACG, the switch fluorescence ratio was 2.25. Sequence TGTTCCTGAG has a switch fluorescence ratio of 1.05. TGTTCCTGCC gave a switch fluorescence ratio of 1.49. Sequence TGTTCGAAGG has a switch fluorescence ratio of 1.03. Work on TGTTCGCCAG yielded a switch fluorescence ratio of 0.945. TGTTCGGTTG was tested, and the switch fluorescence ratio was 1. Work on TGTTGAAGGA yielded a switch fluorescence ratio of 1.75. Sequence TGTTGAATAA has a switch fluorescence ratio of 1. In the case of TGTTGCCAGC, the switch fluorescence ratio was 1.04. With TGTTGCCCGA the switch fluorescence ratio was 1.07. In the case of TGTTGCCCGT, the switch fluorescence ratio was 0.991. For TGTTGCCTAG, the switch fluorescence ratio was 0.922. With TGTTGCGGAC the switch fluorescence ratio was 1.01. Sequence TGTTGGCCTT has a switch fluorescence ratio of 0.968. TGTTGGCGAT showed a switch fluorescence ratio of 1. TGTTGGTTAT gave a switch fluorescence ratio of 1.01. In the case of TGTTTATGGA, the switch fluorescence ratio was 0.982. For TGTTTCAATA, the switch fluorescence ratio was 1.01. Work on TGTTTGCAGG yielded a switch fluorescence ratio of 1. Sequence TGTTTGCG has a switch fluorescence ratio of 1.06. For TGTTTGCGTC, the switch fluorescence ratio was 0.98. Work on TGTTTGTCAA yielded a switch fluorescence ratio of 1.01. TGTTTTACCC gave a switch fluorescence ratio of 0.961. With TGTTTTTCCT the switch fluorescence ratio was 1.03. TGTTTTTCGT showed a switch fluorescence ratio of 0.964. TTAAAAAATC gave a switch fluorescence ratio of 0.99. Sequence TTAAAACTTC has a switch fluorescence ratio of 1.04. TTAAAACTTG gave a switch fluorescence ratio of 1.07.
